Data published in the supplement of paper PMC12340641.
The full ranking holds about 1,000 compounds; the median of “relative growth recovery (pomalidomide 10 uM = 100%, DMSO = 0%)” is about -1.6, and the highest 2% start at about 21. The list shows a part of the results.

test system: HEK293FT dCK*-IKZF1; assay: relative growth recovery (pomalidomide 10 uM = 100%, DMSO = 0%); higher = more growth rescue (IKZF1 fusion degradation); conditions: compound concentration: 5 uM; AraC concentration: 0.3 uM; overnight pretreatment + 4 days AraC
Experimental: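 Growth recovery screen of the molecular-glue-like (Specs) library. HEK293FT cells expressing a dCK*-IKZF1 fusion (primary) or dCK* alone (counter) were pretreated overnight with compound at 5 uM, then given 0.3 uM AraC for 4 days. Hoechst nuclei were counted by imaging. Primary: normalised to pomalidomide (100%) and DMSO (0%), mean of 2 replicates. Counter: normalised to no-AraC (100%) and AraC+DMSO (0%), single replicate.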

SMILES | relative growth recovery [%]
Cc1cc(C)nc(NS(=O)(=O)c2ccc(Nc3nc(-c4ccccc4)cs3)cc2)n1 | -3.62
CC(=O)Nc1ccc(S(=O)(=O)Nc2nccc(/C=C/c3ccc(Cl)cc3)n2)cc1 | -3.16
Cc1cnc(Nc2cccc(C3CN(C(=O)CN4CCN(C)CC4)CCO3)n2)s1 (stereo not given) | 2.71
O=C(Nc1ccc(S(=O)(=O)Nc2ccccn2)cc1)c1ccccc1F | 1.19
Cc1cnc(Nc2cccc(CC3CCN(C(=O)c4cccc(Cl)c4F)CC3)n2)s1 | -14.4
COc1cc(NS(=O)(=O)c2ccc(NC(=O)c3ccccc3C)cc2)nc(OC)n1 | -0.335
Cc1csc(Nc2cccc(C3CCN(C(=O)CN(C)C)CC3)n2)n1 | 15.2
Cc1cccc2c1[nH]c1nc(SCC(=O)Nc3ccc(Cl)cc3)nnc12 | -3.74
CCCc1cnc(Nc2cccc(C3CCN(C(=O)CN)CC3)n2)s1 | -15.8
Cc1cnc(Nc2cccc(C3CCN(CC(=O)N(C)C4CCCCC4)CC3)n2)s1 | -8.8
COc1nccnc1NS(=O)(=O)c1ccc(NC(=S)NC(=O)c2ccc(F)c(F)c2)cc1 | -1.25
Cc1nc(Nc2cccc(C3CCCN3C(=O)c3c(C)oc4c3CCCC4)n2)sc1C (stereo not given) | -4.17
O=C(Nc1ccc(S(=O)(=O)Nc2ncccn2)cc1)c1ccc(N2C(=O)c3ccccc3C2=O)cc1 | 5.91
COC1CCCC(C(=O)N2CCOC(c3cccc(Nc4ncc(C)s4)n3)C2)C1 (stereo not given) | -5.89
Cc1cnc(Nc2cccc(C3CN(C(=O)CN4CCc5ccccc5C4)CCO3)n2)s1 (stereo not given) | -0.525
Cc1cc(C)nc(NS(=O)(=O)c2ccc(NC(=O)C(C)Oc3c(C)cccc3C)cc2)n1 (stereo not given) | -2.94
CCOc1cc(C(=O)Nc2ccc(S(=O)(=O)Nc3ncccn3)cc2)cc(OCC)c1OCC | 0.09
COc1ccc(Cl)c2c1[nH]c1nc(SCC(=O)Nc3ccc(F)cc3)nnc12 | -2.51
Cc1cnc(Nc2cccc(C3(C(=O)NCCO)CCN(C(=O)C4CCCCC4)CC3)n2)s1 | -5.96
CCC(CC)C(=O)N1CCOC(c2cccc(Nc3ncc(C)s3)n2)C1 (stereo not given) | -16
Cc1cnc(Nc2cccc(C3CN(C(=O)C4CCCC(C)C4)CCO3)n2)s1 (stereo not given) | -10.3
Cc1ccc2[nH]c3nc(SCC(=O)Nc4ccc(Cl)cc4)nnc3c2c1 | -3.19
Cc1cc(C)cc(OCC(=O)Nc2ccc(S(=O)(=O)Nc3nc(C)cc(C)n3)cc2)c1 | -2.81
Cc1cc(NS(=O)(=O)c2ccc(NC(=O)C(C)Oc3ccc(F)cc3)cc2)nc(C)n1 (stereo not given) | -0.56

SMILES | relative growth recovery [%]
NC1(C(=O)N2CCC(c3cccc(Nc4ncc(CC(F)(F)F)s4)n3)CC2)CC1 | -18.8
COc1ccc(CCC(=O)Nc2ccc(S(=O)(=O)Nc3nccc(C)n3)cc2)cc1 | -1.64
Cc1cccc(N2CC(C(=O)Nc3ccc(S(=O)(=O)Nc4ncccn4)cc3)CC2=O)c1C (stereo not given) | -2.91
CCc1ccc(C(=O)Nc2ccc(S(=O)(=O)Nc3nc(C)cc(C)n3)cc2)o1 | 0.865
O=C(O)CCOCCOCCOCCOCCNc1cccc2c1C(=O)N(C1CCC(=O)NC1=O)C2=O (stereo not given) | 0.6
CC(C)(C)C(=O)N1CCOC(c2cccc(Nc3ncc(Cc4ccccc4F)s3)n2)C1 (stereo not given) | 0.925
Cc1cc(C)nc(NS(=O)(=O)c2ccc(NC(=O)c3ccccc3I)cc2)n1 | -0.26
O=C(C1COCCN1)N1CCC(c2cccc(Nc3ncc(-c4ccccc4)s3)n2)CC1 (stereo not given) | -3.4
O=C(C1CCCCC1)N1CCOC(c2cccc(Nc3ncc(Cc4ccccc4)s3)n2)C1 (stereo not given) | 2.33
COc1cc(NS(=O)(=O)c2ccc(Nc3nc(-c4ccc(F)cc4F)cs3)cc2)nc(OC)n1 | 0.525
COc1cc(NS(=O)(=O)c2ccc(Nc3nc(-c4c(C)nc5cc(C)ccn45)cs3)cc2)nc(OC)n1 | -7.5
CS(=O)(=O)Nc1ccc(S(=O)(=O)Nc2ncccn2)cc1 | -4.6
Cc1cc(C)nc(NS(=O)(=O)c2ccc(NC(=O)CCCN3C(=O)c4ccccc4C3=O)cc2)n1 | 0.95
Cc1cc(C)c2[nH]c3nc(SCC(=O)Nc4ccc(C)c(Cl)c4)nnc3c2c1 | -10.4
Cc1ccccc1N1C(=O)c2ccc(Oc3cccc(N)c3)cc2C1=O | -5
Cc1ccc(OCC(=O)Nc2ccc(S(=O)(=O)Nc3nc(C)cc(C)n3)cc2)cc1 | -1.25
Cc1cc(C)nc(NS(=O)(=O)c2ccc(-n3cccc3)cc2)n1 | -1.34
Cc1cnc(Nc2cccc(C3CN(C(=O)Cn4c(C(C)C)nc5ccccc54)CCO3)n2)s1 (stereo not given) | -5.78
CCCCCOC(=O)c1ccc(N2C(=O)c3ccc(Oc4ccc(N)cc4)cc3C2=O)cc1 | 1.57
COc1cc(NS(=O)(=O)c2ccc(NC(=O)c3ccccc3C(=O)O)cc2)nc(OC)n1 | -4.23
CC(=O)N1CCC(c2csc(Nc3ccc(F)cn3)n2)CC1 | -1.78
Cc1nn(C)c(C)c1/C=C/C(=O)N1CCC(c2cc3ccccc3c(Nc3nccs3)n2)CC1 | 51.1
Cc1cnc(Nc2cccc(C3CCN(C(=O)c4cccc5cccnc45)CC3)n2)s1 | -2
CC(=O)Oc1cccc(N2C(=O)c3ccc(Oc4ccc(N)cc4)cc3C2=O)c1 | -2.92

SMILES | relative growth recovery [%]
CNC(=O)[C@@H]1CCCC[C@@H]1C(=O)N1CCC(c2cccc(Nc3ncc(C)s3)n2)CC1 | -16.2
Cc1cnc(NC(=O)CN2CCC(c3cccc(Nc4nc(C)c(C)s4)n3)CC2)s1 | 30.3
COC(=O)CCC(=O)Nc1ccc(S(=O)(=O)Nc2nc(C)cc(C)n2)cc1 | 2.03
CC(=O)Nc1ccc(Oc2ccc3c(c2)C(=O)N(c2ccccc2C)C3=O)cc1 | 0.17
Cc1ccnc(NS(=O)(=O)c2ccc([N+](=O)[O-])cc2)c1 | -5.97
Cc1cc(C)c(C(=O)Nc2ccc(S(=O)(=O)Nc3ccccn3)cc2)c(C)c1 | -2.16
Cc1ccnc(NS(=O)(=O)c2ccc(N3C(=O)c4ccc(C(=O)O)cc4C3=O)cc2)n1 | 1.42
Cc1ccnc(NS(=O)(=O)c2ccc(NC(=O)CC34CC5CC(CC(C5)C3)C4)cc2)n1 | 4.75
CN[C@@H]1CCC[C@@H](n2cnc3c(N)nc(N)nc32)[C@@H]1O | -1.49
Nc1cccc(Oc2ccc3c(c2)C(=O)N(CCO)C3=O)c1 | 1.1
Cc1ccnc(NS(=O)(=O)c2ccc(N3C(=O)C4C5C=CC(C5)C4C3=O)cc2)n1 (stereo not given) | -1.3
O=C1c2ccc(Oc3ccc(NC(=O)C(F)(F)F)cc3)cc2C(=O)N1c1ccc(O)cc1 | -4.51
Cc1cc(NS(=O)(=O)c2ccc(NC(=O)COc3ccc(C)c(C)c3)cc2)nc(C)n1 | -14.2
Cc1cc(C)nc(NS(=O)(=O)c2ccc(NC(=O)C3CC(=O)N(c4ccccc4)C3)cc2)n1 (stereo not given) | -4.03
Cc1cc(C)c(C(=O)Nc2ccc(S(=O)(=O)Nc3ncccn3)cc2)c(C)c1 | -2.61
COc1ccc(CN(C(=O)CSc2nnc3c(n2)[nH]c2ccc(OC)cc23)c2ccc(F)cc2)cc1 | 13.3
Cc1cnc(Nc2cccc(C3CN(C(=O)C(C)(C)C)CCO3)n2)s1 (stereo not given) | -4.22
Cc1cnc(Nc2cccc(C3(CO)CCN(C(=O)C4CCCCC4)CC3)n2)s1 | -11.4
Cc1cccc(C(=O)Nc2ccc(S(=O)(=O)Nc3nc(C)cc(C)n3)cc2)c1 | 4.85
Cc1cc(C)nc(NS(=O)(=O)c2ccc(NS(C)(=O)=O)cc2)n1 | -2.53
CC(=O)N1CCC(CCc2ccnc(Nc3nccs3)c2)CC1 | 5.28
Cc1cc(C)nc(NS(=O)(=O)c2ccc(NC(=O)CSc3nc4c(cc3C#N)CCCC4)cc2)n1 | -2.04
Cc1ccc(Oc2ccc3c(c2)C(=O)N(c2ccc(C(N)=O)cc2)C3=O)cc1C | 0.78
Cc1cnc(Nc2cccc(C3CCN(C(=O)c4cccnc4)CC3)n2)s1 | -18.6

SMILES | relative growth recovery [%]
Cc1cc(C)nc(NS(=O)(=O)c2ccc(NC(=O)NC3CCCCC3)cc2)n1 | -3.2
O=C(/C=C/c1ccco1)N1CCCC1c1csc(Nc2ccccn2)n1 (stereo not given) | -0.045
CC(=O)N1CCCC1c1cccc(Nc2nc(C)cs2)n1 (stereo not given) | -0.2
CC(=O)N1CCC(c2cccc(Nc3nc(C)cs3)n2)CC1 | 1.95
Cc1cnc(Nc2cccc(C3CN(C(=O)Cn4nnc5ccccc54)CCO3)n2)s1 (stereo not given) | -7.92
Cc1csc(Nc2cccc(C3CCN(C(=O)CN)CC3)n2)n1 | -10.2
Cn1c(SCC(=O)Nc2ccccn2)nc2ccccc21 | 6.13
COc1cc(NS(=O)(=O)c2ccc(NC(=O)c3ccc(Br)cc3)cc2)nc(OC)n1 | -0.41
Cc1cnc(Nc2cccc(CC3CCN(CC(=O)N(C(C)C)C4CCCCC4)CC3)n2)s1 | -6.62
CCOc1cccc(C(=O)Nc2ccc(S(=O)(=O)Nc3nc(C)cc(C)n3)cc2)c1 | 2.04
Cc1cc(C)nc(NS(=O)(=O)c2ccc(NC(=O)/C=C/c3cccs3)cc2)n1 | 2.12
Cc1csc(Nc2cccc(C3CN(CC(=O)NCc4ccccn4)CCO3)n2)n1 (stereo not given) | 8.57
CCOc1ccc(C(=O)Nc2ccc(S(=O)(=O)Nc3ncccn3)cc2)cc1OCC | -3.79
Cc1ccc(C)c(OCCCC(=O)Nc2ccc(S(=O)(=O)Nc3ncccn3)cc2)c1 | -1.65
O=C(CSc1nc2cc(Cl)ccc2[nH]1)Nc1ccc(Br)cn1 | -5.94
Cc1ccccc1OCC(=O)Nc1ccc(S(=O)(=O)Nc2ccccn2)cc1 | -1.69
NC(=O)CN1CCC(c2csc(Nc3ccc(F)cn3)n2)CC1 | 8.4
CC1=NN(CCC(=O)N2CCOC(c3cccc(Nc4nc(C)c(C)s4)n3)C2)CC1 (stereo not given) | 10.3
CC(=O)Nc1ccc(S(=O)(=O)Nc2ccc(S(=O)(=O)Nc3ncccn3)cc2)cc1 | 3.15
O=C(CCc1c[nH]c2ccccc12)N1CCCC1c1cccc(Nc2nccs2)n1 (stereo not given) | 2.69
O=C(CO)N1CCC(c2cccc(Nc3ncc(-c4ccccc4)s3)n2)CC1 | -18.5
Cc1ccnc(NS(=O)(=O)c2ccc(NC(=O)C(C)(C)C)cc2)n1 | -3.48
Cc1cc(C)nc(NS(=O)(=O)c2ccc(NC(=O)C(C)Oc3ccccc3)cc2)n1 (stereo not given) | 0.095
